Results taken from US10381110B2, “Molecules” (University of Dundee, priority 2010, dated 2019).
Where a name gives a salt, the structure may show the parent alone. Read-outs that look alike come from different tables or passages of the source.

Legend:
Assay in all cases: Secondary radioligand binding assay (Ki)
[1] = target: dopamine D2 (Homo sapiens, UniProt P14416); settings: for Ki: read-out: D2 KI, Cheng-Prusoff
[2] = target: T1, dopamine D4 (Homo sapiens, UniProt P21917)
T1 sequence (P21917 1-419): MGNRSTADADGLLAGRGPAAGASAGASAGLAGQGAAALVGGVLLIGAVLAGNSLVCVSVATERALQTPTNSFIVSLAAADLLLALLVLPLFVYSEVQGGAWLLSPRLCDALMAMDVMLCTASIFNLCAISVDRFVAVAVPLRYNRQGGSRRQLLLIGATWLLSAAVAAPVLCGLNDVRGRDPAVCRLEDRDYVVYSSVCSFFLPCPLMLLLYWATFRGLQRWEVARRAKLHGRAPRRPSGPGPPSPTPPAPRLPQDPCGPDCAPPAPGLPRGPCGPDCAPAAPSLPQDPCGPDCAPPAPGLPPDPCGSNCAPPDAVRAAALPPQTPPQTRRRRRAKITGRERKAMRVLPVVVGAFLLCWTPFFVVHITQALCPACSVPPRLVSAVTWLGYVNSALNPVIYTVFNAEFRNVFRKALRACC

[3] = target: T2, α1A (Alpha1A) (Homo sapiens, UniProt P35348); settings: read-out: Alpha1A KI, Cheng-Prusoff
T2 sequence (P35348 1-466): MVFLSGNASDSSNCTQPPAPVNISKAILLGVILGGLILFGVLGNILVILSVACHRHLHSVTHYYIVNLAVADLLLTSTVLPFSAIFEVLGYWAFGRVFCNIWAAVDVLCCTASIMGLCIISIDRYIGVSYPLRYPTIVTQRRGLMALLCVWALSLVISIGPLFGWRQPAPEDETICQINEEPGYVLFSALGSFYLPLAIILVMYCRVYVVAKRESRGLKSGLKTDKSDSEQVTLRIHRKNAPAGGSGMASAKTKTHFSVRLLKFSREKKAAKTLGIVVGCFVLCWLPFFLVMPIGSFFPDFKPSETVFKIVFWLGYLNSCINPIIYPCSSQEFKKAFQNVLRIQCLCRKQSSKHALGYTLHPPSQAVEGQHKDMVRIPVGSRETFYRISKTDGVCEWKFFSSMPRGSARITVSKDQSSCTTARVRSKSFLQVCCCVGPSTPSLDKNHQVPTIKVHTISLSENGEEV

[4] = target: T3, α1B (Alpha1B) (Homo sapiens, UniProt P35368); settings: read-out: Alpha1B KI, Cheng-Prusoff
T3 sequence (P35368 1-520): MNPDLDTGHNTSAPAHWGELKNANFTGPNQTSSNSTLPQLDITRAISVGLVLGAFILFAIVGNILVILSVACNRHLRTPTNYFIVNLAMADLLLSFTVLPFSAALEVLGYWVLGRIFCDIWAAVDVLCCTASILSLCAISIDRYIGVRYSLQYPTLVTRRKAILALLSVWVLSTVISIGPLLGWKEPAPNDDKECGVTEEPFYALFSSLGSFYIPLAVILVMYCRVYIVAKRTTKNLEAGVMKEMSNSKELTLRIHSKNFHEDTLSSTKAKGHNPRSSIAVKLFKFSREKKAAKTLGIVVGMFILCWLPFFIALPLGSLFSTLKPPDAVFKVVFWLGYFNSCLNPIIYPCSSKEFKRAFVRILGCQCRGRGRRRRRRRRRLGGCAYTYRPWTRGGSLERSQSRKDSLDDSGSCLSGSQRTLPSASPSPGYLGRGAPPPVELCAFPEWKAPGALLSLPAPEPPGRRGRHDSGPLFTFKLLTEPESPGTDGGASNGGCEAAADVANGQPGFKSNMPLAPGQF

[5] = target: T4, Alpha1D (Homo sapiens, UniProt P25100); settings: read-out: Alpha1D KI, Cheng-Prusoff
T4 sequence (P25100 1-572): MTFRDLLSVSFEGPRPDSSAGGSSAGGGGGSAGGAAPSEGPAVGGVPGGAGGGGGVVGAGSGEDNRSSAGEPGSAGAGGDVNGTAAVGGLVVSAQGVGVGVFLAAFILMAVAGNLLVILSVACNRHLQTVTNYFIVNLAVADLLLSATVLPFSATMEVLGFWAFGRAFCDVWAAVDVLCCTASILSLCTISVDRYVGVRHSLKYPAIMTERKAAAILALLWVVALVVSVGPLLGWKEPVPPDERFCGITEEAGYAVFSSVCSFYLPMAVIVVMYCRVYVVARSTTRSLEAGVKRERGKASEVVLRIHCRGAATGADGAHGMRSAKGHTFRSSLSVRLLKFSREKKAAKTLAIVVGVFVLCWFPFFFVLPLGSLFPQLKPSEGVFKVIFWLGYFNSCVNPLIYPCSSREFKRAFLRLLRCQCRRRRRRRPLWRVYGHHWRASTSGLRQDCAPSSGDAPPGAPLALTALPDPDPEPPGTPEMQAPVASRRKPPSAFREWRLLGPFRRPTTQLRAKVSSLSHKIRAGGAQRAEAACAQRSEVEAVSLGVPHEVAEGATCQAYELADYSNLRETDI

[6] = target: dopamine D1 (Homo sapiens, UniProt P21728); settings: read-out: D1 KI, Cheng-Prusoff
[7] = target: 5HT1a (Homo sapiens, UniProt P08908); settings: read-out: 5ht1a KI, Cheng-Prusoff
[8] = read-out: D4 KI, secondary binding assay, Cheng-Prusoff
[9] = read-out: Experimental Receptor Binding Data-Ki D4, Table 25, GPCR panel

Sequence of UniProt P21728 (P21728 whole entry): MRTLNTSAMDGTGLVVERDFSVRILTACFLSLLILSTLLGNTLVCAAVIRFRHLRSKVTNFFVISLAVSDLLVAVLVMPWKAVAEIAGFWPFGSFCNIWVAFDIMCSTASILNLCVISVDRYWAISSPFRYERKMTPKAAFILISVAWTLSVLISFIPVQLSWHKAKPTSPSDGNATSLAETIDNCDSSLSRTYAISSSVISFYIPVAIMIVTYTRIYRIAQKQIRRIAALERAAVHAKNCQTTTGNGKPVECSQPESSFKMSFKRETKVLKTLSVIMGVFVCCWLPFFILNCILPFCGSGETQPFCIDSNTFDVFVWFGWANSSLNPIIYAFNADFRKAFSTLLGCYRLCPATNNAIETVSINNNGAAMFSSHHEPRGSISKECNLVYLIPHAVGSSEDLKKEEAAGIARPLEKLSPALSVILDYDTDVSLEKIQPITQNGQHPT

SMILES	D2 KI ([1]; Cheng-Prusoff, listed as Donepezil)	Ki [2, 8] [nM]	Ki [2, 9] [nM]	Ki [3] [nM]	Ki [4] [nM]	Ki [5] [nM]	Ki [6] [nM]	Ki [1] [nM]	Ki [7] [nM]	Ki [2] [nM]	increase in affinity for dopamine D4 receptor over donepezil ([2]; ratio of Ki values) [fold]
COc1cc2c(cc1OC)C(=O)C(CC1CCN(Cc3ccccc3)CC1)C2 (stereo not shown) [donepezil, reference compound]	inactive	614	614								
COc1cc2c(cc1OC)C(=O)N(CCCCN1CCN(c3ccccc3OC)CC1)C2 [GFR-VII-285]		436	436	0.9	19.3	4.4	531	156			
COc1ccc2c(c1)C(=O)N(CCN1CCN(c3ccccc3OC)CC1)C2 [GFR-VII-280]		191	191	15.9	38.7	12.4		1650	3.5		
COc1ccc2c(c1)C(=O)N(CCCN1CCN(c3ccccc3OC)CC1)C2 [GFR-VII-273]				64.9		81.1				13	
COc1ccc2c(c1)C(=O)N(CCN1CCN(c3ccccc3OC)CC1)C2 [GFR-VII-280-HCl]										187	
COc1ccc2c(c1)CN(CCCN1CCN(c3ccccc3OC)CC1)C2=O [GFR-VII-290]		115	115	59.9	608	56	2730	1370	19		
CC1Cc2ccccc2N1C(=O)CN1CCN(Cc2ccccc2)CC1 (stereo not shown) [STT-00185638, 2-[-4-(benzyl)-piperazin-1-yl]-1-(2-methy-2,3-dihydro-indol-1-yl)-ethanone]										9.5	65
